# Measurements as given in ChEMBL document CHEMBL4888484, “Replenishing the malaria drug discovery pipeline: Screening and hit evaluation of the MMV Hit Generation Library 1 (HGL1) against asexual blood stage Plasmodium falciparum ,using a nano luciferase reporter read-out” (2022).
# Out of some 150,000 compounds screened, about 540 (0.36%) showed an effect of 50% or more. This is one part of the list.
# Test system: Plasmodium falciparum
# Experiment: Primary screen in NF54 nanoGlo assay, in single point, at 2uM, 72h; a lower Z score goes with more inhibition
# Format: functional, Erythrocyte
# Conditions: timepoint 72 hour
Compound,% Inhibition,Z score
COC1Cc2ccccc2N(C(=O)c2ccc(S(=O)(=O)N3CCCCC3C)cc2)C1 (configuration not stated),-12%,1.58
O=C(COC(=O)CCN1C(=O)c2ccccc2C1=O)Nc1ccc(F)c(F)c1,-6%,0.88
CCCCn1ncnc1Cc1ccc(F)c(F)c1F,-10%,1.15
Cc1ccc(-c2ncc(C(=O)NCCCN(C)C3CCCC3)c(O)n2)cc1,-10%,1.27
CCOc1ccc(-c2cc(CCCC(=O)NCCc3ccc(OC)c(OC)c3)no2)cc1,-6%,1.03
Cc1ccc(CCNC(=O)[C@@H]2CCC(=O)N2CCc2ccccc2)cc1,-6%,0.99
O=C(CC1CCCCC1)NCC1CCN(c2cc(-c3cccnc3)n[nH]2)CC1,-17%,1.71
Cc1nnsc1C(=O)N[C@H]1CCOC2(CCOCC2)C1,-19%,1.71
COC(=O)N1CC[C@H](Nc2ccc(C#N)cc2F)C1,2%,-0.19
C[C@H]1CN(c2nccc3[nH]ccc23)CCCO1,-5%,1
COc1cc2c(C(=O)N3CCCOCC3)c[nH]c2cc1Cl,-4%,0.37
COc1ccc(-c2noc(CCN3CCCN(C)CC3)n2)cc1OC,26%,-2.92
CC(C)n1[nH]c(=O)c2c1NC(=O)C[C@@H]2c1ccc(F)c(F)c1F,26%,-2.93
Cc1sc(-c2ccno2)cc1S(=O)(=O)N1CCCCC1,-10%,1.02
Cn1ncc2c(NC(C3CC3)C3CC3)ncnc21,-1%,0.13
Cn1nc2nc(N3CCCC3)nc(-c3cccc(Oc4ccccc4)c3)c2c1N,-13%,1.68
CC(C)c1nc2cc(C(=O)N3CCN(c4cnccn4)CC3)ccc2o1,-2%,0.28
Cc1cc(C(=O)N[C@H]2CC(=O)N(C(C)C)C2)cc(=O)[nH]1,-14%,1.78
Cc1nc(-c2ncc(C(=O)N3CCC[C@H](C#N)C3)c(O)n2)cs1,-14%,1.37
CC(C)(C)C1CCC(O)(CNC(=O)C[C@H]2CCS(=O)(=O)C2)CC1 (some centres not stated),-15%,2.48
O=C1CCC2(CCN(C(=O)c3ncc[nH]3)CC2)CN1Cc1ccncc1,-19%,2.53
O=C(NCc1cccc2[nH]ccc12)N1CC[C@@H](O)C1,0%,0.01

Compound,% Inhibition,Z score
CCc1nc(CN(CCOC)CC(F)(F)F)no1,-11%,1.16
C[C@@H](COCc1ccccc1)C(=O)Nc1nnc(C(F)(F)F)[nH]1,-16%,3.08
Cc1nn(C(C)(C)C)cc1C(=O)N1CCOc2ccc(F)cc2C1,1%,-0.19
O=C(NC[C@@H]1C[C@@H]2C=C[C@@H]1C21CC1)c1coc(COc2ccc(F)cc2)n1,-19%,1.77
COCC(=O)N1CC[C@H](Nc2ncc(F)c(OC)n2)[C@@H](O)C1,14%,-2.73
COc1cccc(-n2nnc3c(N4CCN(C(=O)C5CCCC5)CC4)ncnc32)c1,-8%,1.61
O=C(c1cc2ccccc2o1)N1CC(Nc2cnccn2)C1,-22%,2.55
O=C(c1ccoc1)N1CCC(n2c(=O)[nH]c3ccccc3c2=O)CC1,0%,0.01
Cc1oc(-c2ccsc2)nc1CN1CCn2ncnc2C1,-12%,1.79
CC(C)(C)C(=O)NCCCC(=O)NCCCOc1ccc(F)cc1,-8%,1.09
COc1ccccc1-n1cnc2nc3c(c(-c4ccccc4)c21)CCCC3,-7%,1.3
Cc1ccc(NC(=O)N2CC[C@H](Cc3nccs3)C2)c(N(C)C)n1,-4%,0.92
Cc1cccc(N2CCN(C(=O)CN3C(=O)C4CC=CCC4C3=O)CC2)c1C (configuration not stated),-1%,0.22
CCCCN(C)C(=O)c1cc(C[C@H](C)c2ccccc2)no1,-16%,2.8
Cc1cnc(CNc2ccc3cc[nH]c3n2)cn1,-12%,2.2
CCS(=O)(=O)N1CCC[C@H](Oc2ncc(F)cn2)C1,-1%,0.15
CC[C@H]1CN(S(=O)(=O)c2c(C)noc2C)CC[C@H]1CC(=O)Nc1nccs1,10%,-1.13
COc1ccc(NC(=O)c2occc2-c2ccccc2)cc1OC,5%,-0.63
O=c1c2cc(Br)ccc2nc(-c2ccc(Cl)c(F)c2)n1Cc1ccccc1,1%,-0.07
c1ccc(CNc2ncc(CN3CCC(c4ccncn4)CC3)cn2)cc1,1%,-0.16
COc1ccc2c(c1)CCN(Cc1cc(C#N)n(C)c1C)C2,12%,-2
COc1ccc(-c2cn3c(C(=O)N4CCNC(=O)C4)csc3n2)cc1F,-19%,2.43

Compound,% Inhibition,Z score
Cc1noc(C)c1CN(C)C(=O)c1ccc(O)c(Cl)c1,-8%,1.32
Cc1cccc(Nc2nc(C)c(C(=O)NCc3ccc4c(c3)OCO4)s2)n1,-10%,1.6
Clc1ccccc1-c1cncnc1[C@H]1CCCNC1,-8%,1.13
Cc1c(CCNC(=O)[C@H]2CCS(=O)(=O)C2)c2cccc3c2n1CCC3,-11%,1.99
CC(=O)c1cc(C(=O)NCCc2ccccc2C(F)(F)F)[nH]n1,-22%,1.96
Cc1nnc(NCC2(N3CCOCC3)CCCCC2)c(C#N)c1C,-10%,1.68
O=S(=O)(NCC1(Cn2ccnc2)CC1)c1cn[nH]c1,-17%,3.39
Cc1cc(C)nc(CN(C)C(=O)CCCn2cnnn2)c1,-7%,1.29
COc1ccc2c(c1)N1CCN(c3ccccc3)CC1C(C(=O)NCc1ccccn1)C2 (configuration not stated),-1%,0.15
CC[C@](C)(NC(=O)C(F)(F)F)c1nnnn1-c1cccc(C)c1,2%,-0.18
CCCc1c(NC(=O)N2CCC=C(C)C2)cnn1-c1cccc(C)c1,-14%,2.7
COc1ccc(NC(=O)CN2C(=O)CC(c3ccccc3)=Nc3cccnc32)cc1Cl,27%,-3.01
Cc1ccc2ncc(CNc3nnc([C@@H]4Cc5ccccc5O4)o3)n2c1,-2%,0.2
CC(C)OCCC(=O)N(C)[C@H]1CCN(CC(F)(F)F)C1=O,-7%,0.92
Fc1ccc(C[n+]2csc3ccccc32)cc1,-29%,5.5
Cc1ccc(C(O)CN2CCCC2c2cnn(C)c2)cc1C (configuration not stated),1%,-0.13
FC(F)(F)c1cnccc1N1CC[C@H](c2ccccn2)C1,-18%,2.2
Cc1noc(C)c1C(=O)N[C@@H]1c2cccc(Br)c2CC1(C)C,3%,-0.41
Cc1n[nH]cc1CNCC1(c2ccccc2)CC1,-14%,2.16
CCn1ccnc1CNC(=O)c1sc(C)nc1C,-6%,1.04
Cn1nccc1-c1ccnc2nc(CCc3c[nH]c4ccccc34)nn12,-14%,2.34
O=C(CO)N[C@H]1CN(Cc2c(Cl)cncc2Cl)C[C@@H]1C1CC1,-8%,1.57

Compound,% Inhibition,Z score
Cc1c(Cl)cccc1S(=O)(=O)N(C)C[C@H]1CC(=O)N(C(C)(C)C)C1,-16%,1.59
CCCCC[C@H](NC(=O)c1scnc1C)C(=O)O,-9%,1.41
N#Cc1sccc1-c1cccc(-c2cc[nH]n2)c1,6%,-0.79
CCn1cnc2cc(-c3noc(-c4ccc(C(F)(F)F)cc4)n3)ccc21,0%,-0.05
CCC(=O)N1CCCCC1C1CCCN(C(=O)OC(C)(C)C)C1 (configuration not stated),-3%,0.34
C[C@H](NCc1c2c(nn1C)CCCC2)c1ccc(F)cc1N(C)C,-14%,1.73
CC[C@H](OC1CCCCC1)C(=O)NCc1nc(-c2ccco2)n[nH]1,-3%,0.56
Cc1ncc(C(=O)N2C(C)CCC2C)c(O)c1Br (configuration not stated),-16%,1.61
O[C@H]1[C@H](NCc2ccccn2)[C@H]2CO[C@H](O2)[C@@H]1n1cc(Cl)cn1,10%,-1.58
Cc1ccn2c(NCc3csc(C)n3)nnc2c1,-10%,1.02
CCCc1nnc(NC(=O)CN2CCC(O)(c3ccccn3)CC2)s1,-6%,1.18
COc1cccc2sc(OC3CN(S(C)(=O)=O)C3)nc12,-3%,0.37
COc1ccc(NC(=O)C(C)N2C(=O)c3ccccc3C2c2c[nH]c3ccccc23)cc1 (configuration not stated),5%,-0.66
CC(C)(C)OC(=O)NC(C)(C)c1cc(CN2CCNC(=O)C2)on1,-9%,0.97
CN1CC(NC(=O)C(C#N)Cc2ccc(C#N)cc2)Cc2ccccc21 (configuration not stated),-25%,4.67
CCOc1ncccc1NC(=O)C1CCCCC1,2%,-0.38
CC(C)n1cc([C@]2(O)CCN(c3ccnc(C(=O)O)c3)C2)nn1,-13%,1.44
COc1cccc(C(=O)N2CCN(C(=O)C3(C)CC(=O)C3)CC2)c1,-24%,3.75
CCOc1ccc(NC(=O)[C@H]2Nc3cc(F)ccc3S(=O)(=O)N2)cc1,-8%,0.98
COc1cccc(S(=O)(=O)N2CCC(n3c(C)nn(C)c3=O)CC2)c1,9%,-1.27
